± gives the standard deviation of the averaged measurements. Over roughly 33,000 sequences, “E-score (dimensionless, -0.5 to 0.5)” has its median near -0.046; the highest 2% begin near 0.36. Some of the results follow.
tested on: T1, SpTbr T-box DNA-binding domain (GST fusion); test: PBM E-score of 8-mer (E-score (dimensionless, -0.5 to 0.5)); Tbr is Tbrain of the sea star Patiria miniata (Pm) or the sea urchin Strongylocentrotus purpuratus (Sp); higher = stronger binding preference; most listed sequences are background and not binding sites; conditions: the construct has about 5 more residues each side
T1 sequence: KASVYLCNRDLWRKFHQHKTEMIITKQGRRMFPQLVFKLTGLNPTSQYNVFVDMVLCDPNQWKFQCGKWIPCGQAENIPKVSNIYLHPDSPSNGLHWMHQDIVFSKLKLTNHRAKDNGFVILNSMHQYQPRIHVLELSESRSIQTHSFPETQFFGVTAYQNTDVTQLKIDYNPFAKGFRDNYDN
Summary of the method: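 Using the Universal PBM Analysis Suite, every ungapped 8-mer received an enrichment E-score averaged over duplicate arrays. Probe intensities came from double-stranded Universal Agilent oligonucleotide arrays incubated with 200 nM GST-fused Tbr T-box DNA-binding domain in PBS (pH 7.5). That protein was expressed in BL21 E. coli at 20 °C and purified by glutathione affinity chromatography.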

Row | Sequence | PBM E-score of 8-mer
1 | ACCCTGGG | 0.0224 ± 0.046
2 | GCGATCCA | -0.0191 ± 0.011
3 | AGACGCCA | 0.0474 ± 0.026
4 | TACCTTCA | 0.0858 ± 0.0042
5 | CCAGCCAG | -0.0848 ± 0.024
6 | AGATATTA | -0.0938 ± 0.019
7 | CATGATCA | -0.119 ± 0.0063
8 | TAAGAGTA | -0.233 ± 0.0029
9 | CCAGAGGC | 0.00508 ± 0.031
10 | CTGCATTA | -0.0986 ± 0.045
11 | GGACTGGA | -0.286 ± 0.059
12 | AGGCTATA | -0.246 ± 0.079
13 | CCGCTTAA | -0.0506 ± 0.011
14 | ACCTGGGG | -0.00323 ± 0.044
15 | CGACGCCC | 0.104 ± 0.07
16 | AAAGAGTC | -0.219 ± 0.015
17 | AAGTGTCT | 0.292 ± 0.033
18 | ATTTACAG | -0.0503 ± 0.066
19 | ACAGATTC | 0.0515 ± 0.029
20 | GCACCGCA | -0.0203 ± 0.0064
21 | TGTCGACA | 0.384 ± 0.01
22 | AGGTGAAG | 0.215 ± 0.016

Row | Sequence | PBM E-score of 8-mer
23 | GTACATAA | -0.0407 ± 0.054
24 | GCCGCCCC | 0.0574 ± 0.093
25 | ACTGCAGC | 0.116 ± 0.055
26 | ATCGGCAA | 0.0555 ± 0.027
27 | ACCGCCAC | 0.2135 ± 0.0013
28 | AAGGAATT | -0.0931 ± 0.045
29 | CTGCTGCC | -0.0728 ± 0.033
30 | GGTAGACA | -0.025 ± 0.028
31 | ATCTCTTA | -0.0572 ± 0.0029
32 | AGAGTCCC | -0.216 ± 0.068
33 | ATGTGCAC | 0.117 ± 0.054
34 | AAGCAGCT | -0.117 ± 0.061
35 | AATAGAGA | -0.097 ± 0.086
36 | GCATAGAA | -0.126 ± 0.09
37 | CAAGCGAG | 0.0572 ± 0.052
38 | CATCCCCA | 0.0314 ± 0.046
39 | ACGAACGG | -0.0269 ± 0.066
40 | GTGGAGTA | 0.00844 ± 0.023
41 | ACGTCTCG | 0.0463 ± 0.043
42 | CATTAATA | -0.151 ± 0.057
43 | AACCGTGG | 0.0513 ± 0.049
44 | ACCCAGTA | -0.208 ± 0.024

Row | Sequence | PBM E-score of 8-mer
45 | CCGCGCGC | 0.14 ± 0.088
46 | AGCACGAG | 0.114 ± 0.06
47 | GGTATCAA | 0.0885 ± 0.011
48 | CGAGAACG | 0.3603 ± 0.0018
49 | AGGGATCC | -0.181 ± 0.022
50 | ATGTCGCG | 0.263 ± 0.02
51 | GCGAGACC | 0.295 ± 0.03
52 | ACTTGTTC | -0.108 ± 0.0013
53 | GCTGACCA | -0.241 ± 0.031
54 | GAAGAACC | -0.131 ± 0.027
55 | AATGAATT | -0.0718 ± 0.064
56 | CCTCCCGC | -0.00464 ± 0.079
57 | ACAGGACC | -0.316 ± 0.035
58 | AGCATCCC | -0.2222 ± 0.00073
59 | CACATGGG | 0.0964 ± 0.055
60 | AGACCGAT | -0.131 ± 0.041
61 | GTTGGGGA | -0.00899 ± 0.045
62 | AGTGGGTA | -0.215 ± 0.03
63 | CACGCAGA | 0.0713 ± 0.028
64 | TATGGGAA | -0.231 ± 0.063
65 | AAAAACGA | -0.172 ± 0.011
66 | ACTACAAC | -0.109 ± 0.058

Row | Sequence | PBM E-score of 8-mer
67 | TCTCCGCA | 0.0221 ± 0.051
68 | CAGGTACC | -0.1398 ± 0.0012
69 | AGTCTGCG | -0.0616 ± 0.075
70 | GAAGCGTC | 0.123 ± 0.0087
71 | GAACGGGC | 0.00965 ± 0.0033
72 | CCTCCTCG | -0.0201 ± 0.02
73 | CCCGACAC | 0.367 ± 0.017
74 | CAAGTTGG | -0.00918 ± 0.035
75 | ATCCCATA | -0.0779 ± 0.035
76 | ATACTGCG | -0.0126 ± 0.037
77 | AGTCACAA | 0.125 ± 0.025
78 | CATGGTCC | -0.182 ± 0.025
79 | CATGCGGC | -0.0561 ± 0.031
80 | ATAGCAAA | -0.0414 ± 0.0043
81 | GTATGAGA | -0.128 ± 0.015
82 | GCAAGCCC | -0.159 ± 0.038
83 | AAGCGCGG | 0.136 ± 0.063
84 | ATGAGGAA | -0.255 ± 0.039
85 | CCAAGCGA | -0.092 ± 0.038
86 | CCTTAATA | -0.144 ± 0.013

Source: the supplement of paper PMC4166925
